The values that follow come from the supplement of paper PMC12217912.

Sequences and labels used below:
B1: TEV protease; numbered along this chain (parent)
chain: MGESLFKGPRDYNPISSSICHLTNESDGHTTSLYGIGFGPFIITNKHLFRRNNGTLVVQSLHGVFKVKDTTTLQQHLVDGRDMIIIRMPKDFPPFPQKLKFREPQREERICLVTTNFQTKSMSSMVSDTSCTFPSGDGIFWKHWIQTKDGQCGSPLVSTRDGFIVGIHSASNFTNTNNYFTSVPKNFMELLTNQEAQQWVSGWRLNADSVLWGGHKVFMVKPEEPFQPVKEATQL

Some of the results follow. Sequences were assembled here from the parent chain. Values near 0.05 are background.
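Further: Bxb1 expression induced with 0.2% (w/v) L-rhamnose at OD600 near 0.5, cultures sampled hourly, flipped fraction per protease–substrate barcode pair counted by paired-end Illumina sequencing.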

The variants in the assay derive from B1. Put plainly: raw area under fraction-flipped curve 0-4 h after induction (AUC4h, not background-subtracted), DNA-recorder readout of cleavage of the substrate (dimensionless); higher = more cleavage of the substrate by the protease variant. As to conditions: temperature: 34 °C; time window: 0-4 h after rhamnose induction. Here is the method:
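In vivo DNA recorder in E. coli TOP10(DE3) ΔrhaA at 34 °C. Each TEVp single-site mutant (parent TEVp 0) is paired with a single-site variant of the 7-mer TEVs (canonical ENLYFQ|S). The substrate sits between flexible linkers in a Bxb1-sfGFP-TEVs-SsrA fusion, so cleavage stabilises Bxb1 and speeds flipping of a recombination array, read by NGS. The value is the raw area under the fraction-flipped curve over 0-4 h after rhamnose induction (AUC4h), with ≥20 reads per time point. It is not background-subtracted; inactive controls average about 0.047.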
In the case of MGESLFKGPRDYNPISSSICHLTNESDGHTTSLYGIGFGPFIITNKHLFRRNNGTLVVQSLHGVFKVKDTTTLQQHLVDGRDMIIIRMPKDFPPFPQKLKFREPQREERICLVTTNFQTKSMSSMVSDTSCTFPSGDGIFWKHWIQTKDGQCGSPLVSTRDGFIVGIHSASNFTNTNNYFTSVPKNFMELLTNQEAQQWVSGWPLNADSVLWGGHKVFMVKPEEPFQPVKEATQL [R204P], the “area with substrate ENLYFQD” value was 0.0987, the “area with substrate ENLYFQF” value turned out to be 0.0522, the “area with substrate ENLYFQH” value was 0.0589 and the “area with substrate ENLYFQI” value was 0.0703. Moreover, the “area with substrate ENLYFQM” value was found to be 0.0677, the “area with substrate ENLYFQR” value is 0.0541, the “area with substrate ENLYFQS” value came out at 0.0702 and the “area with substrate ENLYFQW” value came to 0.047. The “area with substrate ENLYFQY” value was 0.0635.

For the variant MKESLFKGPRDYNPISSSICHLTNESDGHTTSLYGIGFGPFIITNKHLFRRNNGTLVVQSLHGVFKVKDTTTLQQHLVDGRDMIIIRMPKDFPPFPQKLKFREPQREERICLVTTNFQTKSMSSMVSDTSCTFPSGDGIFWKHWIQTKDGQCGSPLVSTRDGFIVGIHSASNFTNTNNYFTSVPKNFMELLTNQEAQQWVSGWRLNADSVLWGGHKVFMVKPEEPFQPVKEATQL [G2K], the “area with substrate ENLYFQD” value came to 0.0541, the “area with substrate ENLYFQG” value came to 0.136, the “area with substrate ENLYFQI” value is 0.0784 and the “area with substrate ENLYFQN” value was found to be 0.109. The “area with substrate ENLYFQR” value was 0.0709, the “area with substrate ENLYFQS” value turned out to be 0.134 and the “area with substrate ENLYFQT” value was found to be 0.0684.

For the variant MGESLFKGPRDYNPISSSICHLTNESDGHTTSLYGIGFGPFIITNKHLFRRNNGTLVVQSLHGVFKVKDTTTLQQHLVDGRDMIIIRMPKDFPPFPQKLQFREPQREERICLVTTNFQTKSMSSMVSDTSCTFPSGDGIFWKHWIQTKDGQCGSPLVSTRDGFIVGIHSASNFTNTNNYFTSVPKNFMELLTNQEAQQWVSGWRLNADSVLWGGHKVFMVKPEEPFQPVKEATQL [K100Q], the “area with substrate ENLYFQD” value stood at 0.086, the “area with substrate ENLYFQG” value was 0.0953, the “area with substrate ENLYFQI” value is 0.0567 and the “area with substrate ENLYFQK” value was determined as 0.0694. Also, the “area with substrate ENLYFQL” value was 0.0914, the “area with substrate ENLYFQM” value was determined as 0.0797, the “area with substrate ENLYFQS” value worked out at 0.102 and the “area with substrate ENLYFQT” value is 0.0643. The “area with substrate ENLYFQW” value was 0.0798.

With MGESLFKGPRDYNPISSSICHLTNESDGHTTSLYGIGFGPFIITNKHLFRRNNGTLVVQSLHGVFKVKDTTTLQQHLVDGRDMIIIRMPKDFPPFPQKLKFREPQREERICLVTTNFQTKSMSSMVSDTSCTFPSGDGIFWKHWIQTKDGQCGSPLVSTRDGFIVGIHSASNFTNTNNYFTSVPLNFMELLTNQEAQQWVSGWRLNADSVLWGGHKVFMVKPEEPFQPVKEATQL [K185L], the “area with substrate ENLYFQD” value was found to be 0.0695, the “area with substrate ENLYFQH” value stood at 0.0861, the “area with substrate ENLYFQI” value was 0.0419 and the “area with substrate ENLYFQM” value was 0.128. The “area with substrate ENLYFQN” value was determined as 0.0686, the “area with substrate ENLYFQP” value was found to be 0.0541, the “area with substrate ENLYFQR” value came to 0.06 and the “area with substrate ENLYFQS” value came to 0.108. Also, the “area with substrate ENLYFQT” value was found to be 0.0539 and the “area with substrate ENLYFQV” value was found to be 0.0593.

Consider MGASLFKGPRDYNPISSSICHLTNESDGHTTSLYGIGFGPFIITNKHLFRRNNGTLVVQSLHGVFKVKDTTTLQQHLVDGRDMIIIRMPKDFPPFPQKLKFREPQREERICLVTTNFQTKSMSSMVSDTSCTFPSGDGIFWKHWIQTKDGQCGSPLVSTRDGFIVGIHSASNFTNTNNYFTSVPKNFMELLTNQEAQQWVSGWRLNADSVLWGGHKVFMVKPEEPFQPVKEATQL [E3A], for which the “area with substrate ENLYFQD” value worked out at 0.094, the “area with substrate ENLYFQH” value was 0.077, the “area with substrate ENLYFQR” value came out at 0.0587 and the “area with substrate ENLYFQS” value came to 0.104. Moreover, the “area with substrate ENLYFQV” value was determined as 0.0481, the “area with substrate ENLYFQW” value came to 0.0625 and the “area with substrate ENLYFQY” value turned out to be 0.0622.

For MGESLFKGPRDYNPISSSICHLTNESDGHTTSLYGIGFGPFIITNKHLFRRNNGTLVVQSLHGVFKVKDTTTLQQHLVDGRDMIIIRMPKDFPPFPQKLKFREPQREERICLVTTNFQTKSMSGMVSDTSCTFPSGDGIFWKHWIQTKDGQCGSPLVSTRDGFIVGIHSASNFTNTNNYFTSVPKNFMELLTNQEAQQWVSGWRLNADSVLWGGHKVFMVKPEEPFQPVKEATQL [S124G], the “area with substrate ENLYFQD” value amounted to 0.081, the “area with substrate ENLYFQF” value was found to be 0.0738, the “area with substrate ENLYFQG” value turned out to be 0.0755 and the “area with substrate ENLYFQL” value came to 0.0566. Moreover, the “area with substrate ENLYFQM” value was 0.0987, the “area with substrate ENLYFQP” value was determined as 0.0557, the “area with substrate ENLYFQR” value stood at 0.0594 and the “area with substrate ENLYFQS” value stood at 0.106. Also, the “area with substrate ENLYFQT” value was 0.0646, the “area with substrate ENLYFQV” value was 0.0523 and the “area with substrate ENLYFQW” value turned out to be 0.0668.

As for MGESLFKGPRDYNPISSSICHLTNESDGHTTSLYGIGFGPFIITNKHLFRRNNGTLVVQSLHGVFKVKDTTTLQQHLVDGPDMIIIRMPKDFPPFPQKLKFREPQREERICLVTTNFQTKSMSSMVSDTSCTFPSGDGIFWKHWIQTKDGQCGSPLVSTRDGFIVGIHSASNFTNTNNYFTSVPKNFMELLTNQEAQQWVSGWRLNADSVLWGGHKVFMVKPEEPFQPVKEATQL [R81P], the “area with substrate ENLYFQE” value was determined as 0.0471, the “area with substrate ENLYFQK” value worked out at 0.0553, the “area with substrate ENLYFQS” value was determined as 0.083 and the “area with substrate ENLYFQV” value was determined as 0.0517.

For MGESLFKGPRDYNPISSSICHLTNESDGHTTSLYGIGFGPFIITNKHLFRRNNGTLVVQSLHGVFKVKDTTTLQQHLVDGRDMIIIRMPKDFPPFPQKLKFREPQREERICLVTTNFQTKSMSSMVSDTSCTFPSGDGIFWKHWIQTKDGQCGSPLVSTRDGFIVGIHSASNFTNTNNYFTSVPKNFMELLTNQEAQQWVSGWRLNADSVLSGGHKVFMVKPEEPFQPVKEATQL [W212S], the “area with substrate ENLYFQE” value is 0.0958, the “area with substrate ENLYFQI” value amounted to 0.0716, the “area with substrate ENLYFQK” value was 0.0728 and the “area with substrate ENLYFQL” value was determined as 0.0319. Moreover, the “area with substrate ENLYFQN” value amounted to 0.0696, the “area with substrate ENLYFQP” value worked out at 0.0566, the “area with substrate ENLYFQR” value was 0.0615 and the “area with substrate ENLYFQS” value came to 0.0829. The “area with substrate ENLYFQT” value is 0.0566.

With MGESLFKGPRDYNPISSSICHLTNESDGHTTSLYGIGFGPFIITNKHLFRRNNGTLVVQSLHGVFKVKDTTTLQQHLVDGRDMIIIRMPKDFPPFPQKLKFREPQREERICLVTTFFQTKSMSSMVSDTSCTFPSGDGIFWKHWIQTKDGQCGSPLVSTRDGFIVGIHSASNFTNTNNYFTSVPKNFMELLTNQEAQQWVSGWRLNADSVLWGGHKVFMVKPEEPFQPVKEATQL [N116F], the “area with substrate ENLYFQD” value is 0.074, the “area with substrate ENLYFQI” value is 0.078, the “area with substrate ENLYFQK” value is 0.0371 and the “area with substrate ENLYFQL” value worked out at 0.0561. In addition, the “area with substrate ENLYFQP” value amounted to 0.0518, the “area with substrate ENLYFQS” value stood at 0.0944 and the “area with substrate ENLYFQT” value was determined as 0.0715.

On to MGESLFKGPRDYNPISSSICHLTNESDGHTTSLYGIGFGPFIITNKHLFRRNNGTLVVQSLHGVFKVKDTTTLQQHLVQGRDMIIIRMPKDFPPFPQKLKFREPQREERICLVTTNFQTKSMSSMVSDTSCTFPSGDGIFWKHWIQTKDGQCGSPLVSTRDGFIVGIHSASNFTNTNNYFTSVPKNFMELLTNQEAQQWVSGWRLNADSVLWGGHKVFMVKPEEPFQPVKEATQL [D79Q], for which the “area with substrate ENLYFQD” value was 0.0752, the “area with substrate ENLYFQI” value turned out to be 0.0487, the “area with substrate ENLYFQK” value was found to be 0.0638 and the “area with substrate ENLYFQM” value came out at 0.0823. Also, the “area with substrate ENLYFQS” value was 0.0982 and the “area with substrate ENLYFQV” value was found to be 0.039.
